Cytotoxicity call and growth inhibition call data for 9 compounds are collected here from the antibiotic and cytotoxicity screens of Wong et al. (2023).

Experiment [1] concerns HSkMC (human skeletal muscle cells). Put plainly: cytotoxicity call (relative viability < 0.9). As to conditions: 10 µM.
The subject of experiment [2] is HepG2. Put plainly: cytotoxicity call (relative viability < 0.9). The settings on record: 10 µM.
Experiment [3] has as its system S. aureus RN4220. Put plainly: growth inhibition call (relative growth <= 0.2). As to conditions: 50 µM.

The other results are listed elsewhere or left out.

In the case of `C[C@@H]1CN([C@@H](C)CO)C(=O)Cc2cc(NC(=O)c3ccncc3)ccc2O[C@@H]1CN(C)C(=O)NC1CCCCC1`, the cytotoxicity call in experiment [1] and in experiment [2] was “inactive” each time. In addition, the growth inhibition call in experiment [3] is “inactive”.

Consider `CC(C)NC(=O)N(C)C[C@@H]1Oc2ccc(NS(=O)(=O)c3cccs3)cc2C(=O)N([C@H](C)CO)C[C@@H]1C`, for which the cytotoxicity call in experiment [1] and in experiment [2] was “inactive” each time. In addition, the growth inhibition call in experiment [3] is “inactive”.

`C[C@@H]1CN([C@@H](C)CO)C(=O)c2cc(NC(=O)Nc3ccc(C(F)(F)F)cc3)ccc2O[C@@H]1CN(C)S(=O)(=O)c1ccc(F)cc1`: in experiment [1], the cytotoxicity call is “inactive”. For the same compound, the cytotoxicity call in experiment [2] was “active”. The growth inhibition call in experiment [3] was “inactive”.

Regarding `O=C(C[C@@H]1CC[C@H]2[C@@H](COC[C@@H](O)CN2S(=O)(=O)c2ccccc2)O1)NCc1ccc(-c2ccccc2)cc1`, the cytotoxicity call in experiment [1] and in experiment [2] was “inactive” in each case. For the same compound, the growth inhibition call in experiment [3] is “inactive”.

In the case of `C[C@@H]1CN([C@H](C)CO)C(=O)c2cc(NC(=O)NC3CCCCC3)ccc2O[C@@H](C)CCCCO[C@@H]1CN(C)C(=O)Cc1ccccc1`, the cytotoxicity call in experiment [1] and in experiment [2] was “inactive” throughout. Also, the growth inhibition call in experiment [3] was “inactive”.

For `O=C(C[C@@H]1CC[C@H]2[C@@H](COC[C@H](O)CN2S(=O)(=O)c2cccc(F)c2)O1)NCCCN1CCOCC1`, the cytotoxicity call in experiment [1] and in experiment [2] was “inactive” throughout. For the same compound, the growth inhibition call in experiment [3] was “inactive”.

For `CC(C)NC(=O)Nc1ccc2c(c1)CC(=O)N([C@@H](C)CO)C[C@@H](C)[C@@H](CN(C)C(=O)NC1CCCCC1)O2`, the cytotoxicity call in experiment [1] and in experiment [2] was “inactive” in each case. Moreover, the growth inhibition call in experiment [3] was “inactive”.

On to `O=C(C[C@@H]1C=C[C@@H](NC(=O)C2CCC2)[C@H](CO)O1)NCCCN1CCOCC1`, for which the cytotoxicity call in experiment [1] and in experiment [2] was “inactive” each time. Besides, the growth inhibition call in experiment [3] is “inactive”.

For the compound `COc1ccc2c3c(n(c2c1)C)[C@H](CO)N(C[C@]13CN(C1)C(=O)C)C(=O)CN1CCOCC1`, the cytotoxicity call in experiment [1] and in experiment [2] was “inactive” each time. In addition, the growth inhibition call in experiment [3] is “inactive”.
